Source: the supplement of paper PMC12067230
The data scatter; read single values as rough.

assay: amyloid nucleation score relative to library mode (yeast Sup35 reporter selection) (log enrichment difference); higher = more amyloid nucleation; sequences are the first 22 residues of the Bri2 peptide extended by up to 12 random residues; conditions: random library (experiment): 1;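 active = nucleation score significantly above 0 at FDR 0.05; inactive = not significantly above 0 or absent from output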
Method: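 Random C-terminal extensions of the 22-aa Bri2 peptide by 12 NNK codons; premature stops give shorter extensions. Peptides were fused to the Sup35 nucleation domain in S. cerevisiae [psi-pin-] and selected on -ADE-URA plates for 7 d at 30 °C. The nucleation score is log(output/input), centred to the mode of each of 3 independent libraries (1 input, 3 technical output replicates), with duplicates merged. Sequences absent from the output ('random_non_nuc') were imputed with the library mode value, so they are given as censored (<). Nucleators are scores significantly >0 at FDR 0.05.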
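Further: [psi-pin-] Saccharomyces cerevisiae expressing SupN fusions, induced by 100 µM Cu2SO4, selected 7 d at 30 °C without adenine and uracil, scored by deep sequencing of output versus input.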

Row | Sequence | amyloid nucleation score
1 | EASNCFAIRHFENKFAVETLICALKLAYAEHSVI | inactive
2 | EASNCFAIRHFENKFAVETLICALLRSKRWDCCC | 3.61
3 | EASNCFAIRHFENKFAVETLICALLSDSDTVSGR | inactive
4 | EASNCFAIRHFENKFAVETLICALLSFRLLFTWL | inactive
5 | EASNCFAIRHFENKFAVETLICALMF | 5.53
6 | EASNCFAIRHFENKFAVETLICALMVLSKSDPSV | inactive
7 | EASNCFAIRHFENKFAVETLICALNYGLYNHYFV | inactive
8 | EASNCFAIRHFENKFAVETLICALPLPTLEAAFF | -0.0755
9 | EASNCFAIRHFENKFAVETLICALPMVSTQCRGD | inactive
10 | EASNCFAIRHFENKFAVETLICALRAVKSRCTHG | inactive
11 | EASNCFAIRHFENKFAVETLICALRCWRYTGGMV | inactive
12 | EASNCFAIRHFENKFAVETLICALRMKPARDPVA | inactive
13 | EASNCFAIRHFENKFAVETLICALSEVRTWEYAR | inactive
14 | EASNCFAIRHFENKFAVETLICALSLRAYVGLMQ | 0.627
15 | EASNCFAIRHFENKFAVETLICALSYGLINVLGS | -0.438
16 | EASNCFAIRHFENKFAVETLICALTFWAVKKGGG | inactive
17 | EASNCFAIRHFENKFAVETLICALVAWRSGDFCM | 7.04
18 | EASNCFAIRHFENKFAVETLICALVKLGSRGGWR | inactive
19 | EASNCFAIRHFENKFAVETLICALVLDIRSETIV | 3.49
20 | EASNCFAIRHFENKFAVETLICALVVRDTRYGCR | inactive
21 | EASNCFAIRHFENKFAVETLICALWCLSGLRLGT | -0.00976
22 | EASNCFAIRHFENKFAVETLICALWGTRSLKGSA | inactive
23 | EASNCFAIRHFENKFAVETLICALYEAQWEARRF | 1.97
24 | EASNCFAIRHFENKFAVETLICALYGCSWLSMAR | inactive
25 | EASNCFAIRHFENKFAVETLICALYVACRGLSCD | -0.102
26 | EASNCFAIRHFENKFAVETLICAM | inactive
27 | EASNCFAIRHFENKFAVETLICAMALRVRTWLQE | inactive
28 | EASNCFAIRHFENKFAVETLICAMCWWYNWVLSL | -0.203

Row | Sequence | amyloid nucleation score
29 | EASNCFAIRHFENKFAVETLICAMDG | inactive
30 | EASNCFAIRHFENKFAVETLICAMFRRGMVLR | inactive
31 | EASNCFAIRHFENKFAVETLICAMGPGPKPQRAV | inactive
32 | EASNCFAIRHFENKFAVETLICAMHFIDYKYLGC | inactive
33 | EASNCFAIRHFENKFAVETLICAMHLLCRTMVGR | inactive
34 | EASNCFAIRHFENKFAVETLICAMPFLW | 6.55
35 | EASNCFAIRHFENKFAVETLICAMRQTPSQVLDP | inactive
36 | EASNCFAIRHFENKFAVETLICAMRRGLEGLVWR | inactive
37 | EASNCFAIRHFENKFAVETLICAMRRRSQSCRAS | inactive
38 | EASNCFAIRHFENKFAVETLICAMSEHAAVLKCS | inactive
39 | EASNCFAIRHFENKFAVETLICAMSLVDS | inactive
40 | EASNCFAIRHFENKFAVETLICAMVWKWSWPGGW | inactive
41 | EASNCFAIRHFENKFAVETLICAMYHRVCCDLSG | inactive
42 | EASNCFAIRHFENKFAVETLICANCHWSTWECRG | 3.15
43 | EASNCFAIRHFENKFAVETLICANFGKRRFESLI | inactive
44 | EASNCFAIRHFENKFAVETLICANIA | inactive
45 | EASNCFAIRHFENKFAVETLICANMTCNIYIAMW | inactive
46 | EASNCFAIRHFENKFAVETLICANPTVWGANS | inactive
47 | EASNCFAIRHFENKFAVETLICANRDYLHSFTLG | inactive
48 | EASNCFAIRHFENKFAVETLICANRVKWRNYCVV | inactive
49 | EASNCFAIRHFENKFAVETLICANVCRRTSMASY | inactive
50 | EASNCFAIRHFENKFAVETLICANWFHCSNMSSA | 7.19
51 | EASNCFAIRHFENKFAVETLICANWRVGYFYCGM | 1.36
52 | EASNCFAIRHFENKFAVETLICAP | inactive
53 | EASNCFAIRHFENKFAVETLICAPAYENRMSLVW | inactive
54 | EASNCFAIRHFENKFAVETLICAPCGVYHVCLCR | inactive
55 | EASNCFAIRHFENKFAVETLICAPDFIKFRSVQA | inactive

same assay, conditions: random library (experiment): 2

Row | Sequence | amyloid nucleation score
56 | EASNCFAIRHFENKFAVETLICALL | inactive
57 | EASNCFAIRHFENKFAVETLICALLGEWDSELIT | inactive
58 | EASNCFAIRHFENKFAVETLICALLLAYRTGGMA | inactive
59 | EASNCFAIRHFENKFAVETLICALLYRMYVMYSL | inactive
60 | EASNCFAIRHFENKFAVETLICALRVIATAGYSA | inactive
61 | EASNCFAIRHFENKFAVETLICALVRLLRCSRQT | inactive
62 | EASNCFAIRHFENKFAVETLICALWCNVCYKCHC | 6.11
63 | EASNCFAIRHFENKFAVETLICALWRYEPSMVSA | inactive
64 | EASNCFAIRHFENKFAVETLICALYRDFRTEANM | inactive
65 | EASNCFAIRHFENKFAVETLICALYTVVFWRKSF | inactive
66 | EASNCFAIRHFENKFAVETLICAMAASARMLRCG | inactive
67 | EASNCFAIRHFENKFAVETLICAMDGGF | inactive
68 | EASNCFAIRHFENKFAVETLICAMF | 4.1
69 | EASNCFAIRHFENKFAVETLICAMFWKLMKRVSI | inactive
70 | EASNCFAIRHFENKFAVETLICAML | 0.268
71 | EASNCFAIRHFENKFAVETLICAMVERGKKYFYS | inactive
72 | EASNCFAIRHFENKFAVETLICAMVIARLWVLRD | inactive
73 | EASNCFAIRHFENKFAVETLICAMYMIWYCKRIR | inactive
74 | EASNCFAIRHFENKFAVETLICANCSFCWVVVGI | 5.8
75 | EASNCFAIRHFENKFAVETLICANETATRGAPGD | -0.0392
76 | EASNCFAIRHFENKFAVETLICANFCSVPYLYLC | 4.8
77 | EASNCFAIRHFENKFAVETLICANFLFINWGLVR | 2.61
78 | EASNCFAIRHFENKFAVETLICANFYSNSYVCSG | 8.96
79 | EASNCFAIRHFENKFAVETLICANLLNIVEEATV | 6.74
80 | EASNCFAIRHFENKFAVETLICANMCSYFWFEVT | 6.57
81 | EASNCFAIRHFENKFAVETLICANVHQLNDCFPA | inactive
82 | EASNCFAIRHFENKFAVETLICANVI | inactive

same assay, conditions: random library (experiment): 3

Row | Sequence | amyloid nucleation score
83 | EASNCFAIRHFENKFAVETLICALKCGSWSGVLD | 6.3
84 | EASNCFAIRHFENKFAVETLICALKLASRSIIGG | inactive
85 | EASNCFAIRHFENKFAVETLICALLASGDDECWT | inactive
86 | EASNCFAIRHFENKFAVETLICALLLNVIAPFNV | inactive
87 | EASNCFAIRHFENKFAVETLICALLVRRATAPAS | inactive
88 | EASNCFAIRHFENKFAVETLICALMFRCERRRLT | inactive
89 | EASNCFAIRHFENKFAVETLICALMIRPGSMPW | inactive
90 | EASNCFAIRHFENKFAVETLICALRQC | inactive
91 | EASNCFAIRHFENKFAVETLICALRSL | inactive
92 | EASNCFAIRHFENKFAVETLICALSPW | 4.96
93 | EASNCFAIRHFENKFAVETLICALSRSCVEGLGV | 1.34
94 | EASNCFAIRHFENKFAVETLICALVWGPGRRWCR | inactive
95 | EASNCFAIRHFENKFAVETLICALWLLGYTWAWA | 0.788
96 | EASNCFAIRHFENKFAVETLICALY | inactive
97 | EASNCFAIRHFENKFAVETLICAMAAYLSLHVMR | inactive
98 | EASNCFAIRHFENKFAVETLICAMARGKSILCVS | inactive

Row | Sequence | amyloid nucleation score
99 | EASNCFAIRHFENKFAVETLICAMEVLGDVSTVP | inactive
100 | EASNCFAIRHFENKFAVETLICAMSCYYASVSSR | inactive
101 | EASNCFAIRHFENKFAVETLICAMSLPTCLSIWC | inactive
102 | EASNCFAIRHFENKFAVETLICAMTRWGMCLW | 0.607
103 | EASNCFAIRHFENKFAVETLICAMVYSRSVVLTG | 0.0846
104 | EASNCFAIRHFENKFAVETLICAMWG | 2.64
105 | EASNCFAIRHFENKFAVETLICANDVRMLAIRHV | 2.78
106 | EASNCFAIRHFENKFAVETLICANGAGGVVTGRK | inactive
107 | EASNCFAIRHFENKFAVETLICANGLVVDTGLVV | inactive
108 | EASNCFAIRHFENKFAVETLICANHVR | inactive
109 | EASNCFAIRHFENKFAVETLICANLWTGNRFAG | 8.89
110 | EASNCFAIRHFENKFAVETLICANSGVSGWVC | inactive
111 | EASNCFAIRHFENKFAVETLICANSLYMDGIFAV | inactive
112 | EASNCFAIRHFENKFAVETLICANTSWWNMKVVG | inactive
113 | EASNCFAIRHFENKFAVETLICANVWIMGGSLVM | 6.87
114 | EASNCFAIRHFENKFAVETLICAPCHEARLRRWK | -0.127
